Reference: paper PMC6919601, “Identification of Plasmodium dipeptidyl aminopeptidase allosteric inhibitors by high throughput screening” (PLoS ONE, 2019)
Out of some 110,000 compounds screened, about 230 (0.21%) showed an effect of 50% or more. The list shows a part of the results.

target: DPAP1 (Plasmodium falciparum, UniProt Q8IIJ9); experiment: primary screen, percent inhibition; read by cleavage of a fluorogenic dipeptide substrate; higher = more effect of the substance; design: species or system P. falciparum D10 trophozoite lysates; single well
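Further: 30 min substrate incubation versus DMSO and 10 µM JCP410 controls.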

Sequence of DPAP1 (Q8IIJ9 whole entry, looked up): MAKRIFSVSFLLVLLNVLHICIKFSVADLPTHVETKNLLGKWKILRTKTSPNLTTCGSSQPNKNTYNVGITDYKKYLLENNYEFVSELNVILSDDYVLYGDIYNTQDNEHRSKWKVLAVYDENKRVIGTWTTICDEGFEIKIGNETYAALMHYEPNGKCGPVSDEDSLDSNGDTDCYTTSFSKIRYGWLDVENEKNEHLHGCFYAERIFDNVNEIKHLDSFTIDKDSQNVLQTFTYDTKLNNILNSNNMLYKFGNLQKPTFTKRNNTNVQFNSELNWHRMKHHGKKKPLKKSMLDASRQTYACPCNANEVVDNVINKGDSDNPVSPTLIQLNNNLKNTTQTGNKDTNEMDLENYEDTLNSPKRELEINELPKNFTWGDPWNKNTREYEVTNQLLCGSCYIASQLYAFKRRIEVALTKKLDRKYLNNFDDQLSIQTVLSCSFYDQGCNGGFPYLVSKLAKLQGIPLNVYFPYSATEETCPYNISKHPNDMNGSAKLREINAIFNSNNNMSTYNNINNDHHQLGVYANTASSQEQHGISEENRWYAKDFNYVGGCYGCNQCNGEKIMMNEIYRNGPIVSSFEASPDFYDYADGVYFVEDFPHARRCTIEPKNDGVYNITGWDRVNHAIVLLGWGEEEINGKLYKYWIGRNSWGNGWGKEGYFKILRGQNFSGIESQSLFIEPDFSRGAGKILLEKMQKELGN

| Compound | % Inhibition @ 10 uM [%] |
| --- | --- |
| COc1ccccc1CNCc1ccccc1C(F)(F)F | 6.12 |
| CC(C)C[C@H](NC(=O)OCCc1ccccc1)C(=O)NCC#N | -0.0207 |
| c1ccc(CN2CCC(NC3CC3)CC2)cc1 | -3.27 |
| CCOc1cc(C2C(C#N)=C(N)Oc3c2c(C)nn3-c2cccc(Cl)c2)ccc1O (stereo not drawn) | -1.6 |
| O=S(=O)(NC1CCN(Cc2ccccc2)CC1)c1ccc(-c2ccc(O)nn2)s1 | 3.1 |
| COc1cc(/C=C2\C(=O)ON=C2C)cc(Br)c1O | -7.09 |
| CC(C)N(CCCNC(=O)CCN1C(=O)c2ccccc2Sc2ncccc21)Cc1ccccc1 | 2.86 |
| CCOc1cccc(/C=C2/NC(=O)N(CC)C2=O)c1O | -2.09 |
| Nc1nc(CN2CCCCCC2)nc(Nc2ccccc2)n1 | -7.78 |
| CCOC(=O)c1ccc2ncc(C(=O)OCC)c(NCCCOC(=O)c3ccc(OC)cc3)c2c1 | 3.16 |
| CC(C)(C)C(=O)Nc1sc2c(c1C#N)CCC2 | -4.49 |
| O=C(O)CCCNC(=O)C(O)(c1ccccc1)c1ccccc1 | -5.4 |
| CCn1cc(Cl)c(C(=O)Nc2cccc(CN3CCOCC3)c2)n1 | 0.726 |
| Cc1cc(Cl)ccc1OCC(O)CN1CCC(O)(c2ccc(Cl)cc2)CC1 (stereo not drawn) | -6.86 |
| O=[N+]([O-])c1ccc(CN2CCCCCCC2)cc1 | 6.08 |
| CSc1ccc(NC(=O)c2sc3nc(N)c(C#N)cc3c2N)cc1 | 2.68 |
| CCSc1nc(O)c(C(c2ccccc2)c2ccccc2)c(O)n1 | 3.35 |
| CCOC(=O)c1c(C)c(C(=O)NCCCOC(C)C)c(C)n1C | -1.66 |
| CC(=O)c1ccc(N2CCN(Cc3ccc(-c4ccccc4)cc3)CC2)cc1 | -3.27 |
| CCCCc1nc(SCC(=O)NCc2ccccc2)c2c3c(sc2n1)COC(C)(C)C3 | 0.565 |
| Cc1nn(Cc2ccc(C(=O)Nc3ccc(C(=O)O)cc3)o2)c(C)c1Cl | -3.19 |
| O=CN1CCN(C2CCC(c3ccccc3)CC2)CC1 (stereo not drawn) | -5.11 |

| Compound | % Inhibition @ 10 uM [%] |
| --- | --- |
| COc1ccccc1/C=C/CN1CCN(c2cccc(C(F)(F)F)c2)CC1 | -5.26 |
| Cc1ccccc1/C=C1\N=C(c2ccc(Br)cc2)OC1=O | 1.25 |
| O=C(CSc1nc2cccnc2[nH]1)c1ccc(Br)cc1 | 3.24 |
| CCN(CC)C(=O)C1CCCN(Cc2cc(Br)ccc2OC)C1 (stereo not drawn) | -1.93 |
| O=c1oc(-c2ccccc2)cc(Cl)c1Cl | 8.06 |
| O=C(Cn1ncc2ccc(Cl)cc21)NCc1ccc2c(c1)OCO2 | -2.88 |
| O=C1c2ccccc2C(=O)N1CC#Cc1ccccc1 | 5.66 |
| Cc1nc2c(c(C)nn2C)c(C)c1CCC(=O)NCCCc1ccccc1 | -2.45 |
| Cc1ccc(S(=O)(=O)N(C)c2c(C)ccc(S(=O)(=O)N3CCN(C)CC3)c2C)cc1 | 2.01 |
| O=C(COc1ccc2ccccc2c1)Nc1ccccc1OC(F)F | 5.48 |
| O=C(O)c1cc2c(ccc3ccccc32)[nH]1 | 1.88 |
| CCC(C)NC(=O)[C@@H](c1ccccc1)N1Cc2ccccc2C1=O (stereo partly drawn) | 2.72 |
| COc1ccc(C)cc1NC(=O)c1ccc([N+](=O)[O-])cc1Cl | 1.04 |
| COc1ccc(CCn2c(C)cc3c(c2=O)C(c2ccccc2)C(C#N)=C(N)O3)cc1OC (stereo not drawn) | -3.63 |
| Oc1nc(Cn2nnc(-c3ccc4c(c3)OCO4)n2)nc2ccccc12 | -1.05 |
| Cc1ccc(C(=O)NCc2ccccc2)o1 | -0.132 |
| CC1=NN(c2nc3ccccc3nc2Cl)C(=O)C1 | -6.58 |
| CS(=O)(=O)c1ccc2nc(NC(=O)Nc3ccccc3)sc2c1 | -8.3 |
| Cc1cc(C)c(-c2cc(C(F)(F)F)no2)c(O)n1 | 4.96 |
| COc1ccc(CC(C)N(C)Cc2cccc3ccccc23)cc1 (stereo not drawn) | 3.48 |
| c1cncc(-c2nnc3n2C2(CCCCC2)Cc2ccccc2-3)c1 | -2.91 |
| Fc1ccccc1-c1nnc(-c2ccc3c(c2)OCO3)o1 | 1.29 |

| Compound | % Inhibition @ 10 uM [%] |
| --- | --- |
| COc1ccccc1NC(=O)c1cc(F)c(Cl)nc1Cl | -6.66 |
| Cc1nn(Cc2ccccc2)c(C)c1C(=O)NS(=O)(=O)c1ccccc1Cl | -5.51 |
| COc1ccc(/C=C\c2onc(C)c2S(=O)(=O)N2CCC(C(=O)N3CCOCC3)CC2)cc1 | 2.14 |
| Cc1ccsc1/C=C1\N=C(c2cccc(Br)c2)OC1=O | -5.41 |
| Cc1cc2c(c(=O)n1Cc1ccc3c(c1)OCO3)C(c1cccs1)C(C#N)=C(N)O2 (stereo not drawn) | -2.91 |
| NC(=O)c1nn2c(C(F)(F)F)cc(-c3ccccc3)nc2c1Br | 1.87 |
| Cc1ccccc1Cn1c(Cl)nc2c1c(=O)n(C)c(=O)n2C | 1.78 |
| NC(=O)c1c(NC(=O)C2CC=CCC2C(=O)O)sc2c1CCC2 (stereo not drawn) | -4.01 |
| COc1ccc(CCNC(=O)c2cc3c(Cl)ccc4c3n2CCO4)cc1OC | 3.8 |
| COc1ccc(-c2nc(CSCC(=O)NCc3cccnc3)c(C)o2)cc1 | 3.99 |
| O=c1c(=O)n(Cc2cccc(Cl)c2)ccn1Cc1ccccc1 | 1.79 |
| Cc1cccc(NCc2ccc(O)c3ncccc23)n1 | -8.28 |
| Nc1c(C(=O)c2ccccc2)oc2ccc(Cl)cc12 | 0.503 |
| O=C(c1cnn2c1NC(c1ccccc1)CC2C(F)F)N1N=C(C(F)F)CC1(O)C(F)F (stereo not drawn) | -3.18 |
| O=C(Nc1ccc(N2C(=O)C3CC=CCC3C2=O)cc1)c1ccccc1 (stereo not drawn) | 3.75 |
| CCc1cc2c(cc3c(=O)n(CC(=O)NC(C)c4ccccc4)nc(CC)n32)s1 (stereo not drawn) | 7.81 |
| CC(C)(C)N1CC(C(=O)O)CC1=O (stereo not drawn) | 0.0289 |
| CN1CCN(CCNC(=O)c2cnn(-c3ccc(F)cc3)c2-n2cccc2)CC1 | -5.37 |
| Cc1ccc(NC(=O)C2CC(=O)N(c3ccc(F)cc3)C2)c(C)c1 (stereo not drawn) | 0.147 |
| CCN(CC)S(=O)(=O)c1ccc(NC(=O)c2ccc(OC)cc2)cc1 | -0.992 |
| COc1cc(NC(=O)c2cc(OC)c(OC)c(OC)c2)c(OC)cc1Cl | -10.7 |
| COC(=O)c1cn(C(=O)COc2ccc(C)cc2Br)c2ccccc12 | 2.56 |
